Data on 167 variants can be found in the RNAGym collection of RNA variant scans (doi:10.7554/elife.90254).

The chains are these.
B1: LINE1-full (parent)
chain: UACGUAGGUGGUUUUCCCCUGAUAGUGCUAAGGGGGCCUGGAAGUUUGGACUGGGCAGAGCUCAACACAGCGUGGCAAAGUGGCUGUGGCUAGACUGCCUCUCUGGAUUCCUCGUCACUCAGCAGGGCAUCUCUGAGAGAAAUGCC

Read counts are not given, so values of variants with three or more changes are uncertain.

Variants of B1 are the subject of this series. Kind of series: self-cleavage, relative activity (ratio to wild type); higher = more cleavage; in vitro, sequencing; the parent is a self-cleaving ribozyme.
Turning to A64G C101A U132C, the self-cleavage worked out at 0.28.
Turning to A64U A138G A140G, the self-cleavage was 0.74.
Next, A59U U100C U119C: 1.65; U62A C99U A107G U112C: 0.05.
For A64U A77G U108C A138G, the self-cleavage is 0.99.
Then U62C A64G U87C, with 0.
Next, U62A A69G U130C: 0.
Then U62C A65G A79U U100C A142G, with 0; and U62A A129G U130C, with 0.
As for U62C G125U A138G, the self-cleavage was determined as 0.01.
Then U62C U91C U112C, with 0.09.
Next, A64G U81A A141U: 0.22; A59G G75A A78G U91A A138G: 0.06.
Take U62A U91C U132A: the self-cleavage came out at 0.03.
Next, A59G A94U U104C: 0.19; U62C U81A U130C: 0.07; A59U U62C A69G A78G: 0.26.
Then A64G U85G U87A U119C, with 0.17.
Regarding A64G U85A U104A A138G, the self-cleavage was found to be 0.08.
Then U62C A67G U132C A141G, with 0; and A59G U96C U109A, with 0; and U62C U104C A129C A140G, with 0.
For U62C U102C A107G G114A, the self-cleavage came out at 0.05.
Then U62C U96C A138G, with 0.09; and U62C U134A A141G, with 0.04.
In the case of A65G A78G A140G, the self-cleavage amounted to 0.12.
Then C61U U85A A141G, with 0.04.
Then A65G A77G U119C, with 0; and A64G A77G U115A, with 0.53; and G60A A79U U109C U112C U143C, with 0.01.
Then U62C U87A U104C, with 0; and A64U U132C G139U, with 0.28.
As to A59G G114A A136G, the self-cleavage was determined as 0.08.
Next, A59U U96A G125A: 0.03; A65G A67G U96A: 0.
As for U62C U85C G93A U100C, the self-cleavage was determined as 0.
A59U U104A A140G: the self-cleavage worked out at 0.09.
On to A64U U96A U108A, for which the self-cleavage was determined as 0.06.
With A64G A77G A121U A141G, the self-cleavage came out at 0.39.
Then A65G A77C G88A U109C A121G, with 0.2; and A64U A79G C103A U104C U134A, with 0.06; and A59G G60A A117C, with 0.
Then A65G A77G A136U, with 0; and A64G A94U U132G, with 0; and A59G A79C A138G, with 0.
Then A59U U73C U132C, with 1.55; and C61A A65G U73A U100A, with 0.04; and A64G U73A A129G U132A, with 0.52.
As to A65G A77U A94G G122A, the self-cleavage was found to be 0.08.
Then A59U U73A G127U, with 0.86; and A65G A77G A78G A124U, with 0.
Next, U62C C99A U102G: 0.1; A65G A69G A129G: 0.
Turning to A65C A69U G83A, the self-cleavage turned out to be 0.02.
Next, A64C A67G A77G U104A A129U: 0; U62C U85C G114A: 0.03; A64G U115C G122U G135A: 0.24.
On to U62C A94G A141G, for which the self-cleavage amounted to 0.
Then A64G G88A U109A, with 0.08; and U62C U96G U130C A142G, with 0.
Next, U62C U87C U109A: 0.
U62A U119A G137A: the self-cleavage came to 0.
Then U62C A77G U119C A138U U143C, with 0; and U62A G83U U119C, with 0.03.
Turning to A64G U115C A140U, the self-cleavage is 0.27.
Next, A64G C71A U134C: 0.03.
Next, U62C A64U G86U U87A A138G: 0.05; G58U U100A A129G: 0.04.
Regarding A64U U85C A140U, the self-cleavage worked out at 0.05.
With U62C A77G A136U, the self-cleavage was determined as 0.14.
Next, A59U U134G C146A: 0.85; U62C A67G U85C U96A: 0.
Then A59G U87A U96A U112A, with 0.04; and A64G A69U U96A U132A A141G, with 0.02; and A65C C99U U143A, with 0.04.
Regarding U62A A64U U134A, the self-cleavage worked out at 0.04.
As for A59U A69C U91C, the self-cleavage was determined as 0.08.
Next, A64G A78U A129G: 0.18; G60A A92G U130C: 0.16; A59G C84U C110U U115A A136U A138G: 0.01.
Next, C61U A141G U143C: 0.04; A59G C99U A141G: 0.02; U62C A65U U87A A140G: 0.08.
Then A64U U73G A136G, with 0.55; and U62C A78G U81C A142G, with 0; and A65G A69U U132C, with 0.
As to A59G C68U G86A A94G A129C, the self-cleavage was found to be 0.05.
Then U62C U100C U112C, with 0.
A64U U96C C128G: the self-cleavage amounted to 0.03.
Take A65G C90U U100C: the self-cleavage came out at 0.09.
Consider U62A U96A U130A, for which the self-cleavage was 0.04.
Next, U62A U73A G74A A140G: 0.1.
Next, A64G A77G U108C: 0.59; U62C G114A U134G A138U: 0.06; A59U U100C U102C: 1.36.
Then G60U A136G A142G, with 0.04; and U62C G80A U85C A121U, with 0.03.
Turning to A59C U73C G82A A138G, the self-cleavage was determined as 2.18.
Next, U62C U85A U100C U115A: 0.07; A64U U119C U132C: 0.16; U62C U96A A140G: 0.05.
Turning to A64G U104A A124G, the self-cleavage was 0.2.
Then A64U A79U U104A, with 0.54; and A64G A78U U87C, with 0.21.
Turning to A65G A69G U85A U104C, the self-cleavage is 0.
Next, C63U U115C A121G A136U: 0.77; U62A U73C U100C C113U: 0.04.
Then U62C C120A A140G, with 0.22; and A59U A67C C99A U112C, with 0.19; and A64G A69U U91A, with 0.06.
Next, U62A A78G C103U: 0.04; A64G C116U U143A: 0.22; U62C U108C U134C: 0.1.
C61G U81A U104C A136U: the self-cleavage came out at 0.
Turning to C61A U73C U81C A121G, the self-cleavage worked out at 0.17.
Next, A65G A77G U132C A138G: 0; U62A U109A U143C: 0.05.
Turning to A59G A77G A140G, the self-cleavage turned out to be 0.6.
Then A64G A77G A140U, with 0.23; and U62A C66A A78U C90U U102C A124U, with 0.04.
Next, U62C C63U A64U U132A: 0.01; A59G A69G A79U U119C: 0; U62C G97A A140G: 0.04.
Next, U62C A69U C120U: 0.01.
Take U62C A78G U91C A142G: the self-cleavage stood at 0.
Next, A64G G88A U119C: 0.06; C63U A67U A142G: 0.05; A64U U130A A140G: 0.42.
Turning to C61A A67G A129U, the self-cleavage came to 0.04.
Next, U62A C76U U85A: 0.05; A64G A69G C113U: 0.21.
Next, A59U U104A U109C A136G: 0.71; A65G A124G G125U: 0.
Next, A59G G126A A141G: 0.05; U62C U130C A142G: 0.08.
Consider A64U A67U U81A, for which the self-cleavage worked out at 0.04.
Next, A64G U104C U134A: 0.
Then A64C A129G A136G, with 0.5; and U62C U91A U100A A140G, with 0; and A64G A67U U73A G137U, with 0.07.
Next, U62C U87C U130C: 0.47; C63U U85C A129U A142G: 0.06; U62C A78G U119A: 0.
Regarding A59U C71A G83A U100A, the self-cleavage amounted to 0.12.
Then A64G U96C A136G, with 0.
Then A59G C118U U130A, with 0.17; and U62C A77G U119C A129G, with 0; and A65G A92U U134C, with 0.07.
On to U62A A67G U115A, for which the self-cleavage is 0.21.
With A64G U85A U91C, the self-cleavage stood at 0.44.
Next, U62C A65G U85A A138G: 0; A64G U96C U104C: 0; A64G A77U A129G: 0.39.
Next, C61U A79U U81C U104C: 0.02; A64U C84U U134A A141G: 0.11.
Next, A59G A107U A142G: 0.07; A59G G72A A94G G114A: 0.1; G60U A67U A140G: 0.04.
U62A U87A U115C A117U: the self-cleavage is 0.01.
Then A64G A107G U115C, with 0.69; and U62A G82A C128U C131U, with 0.01.
Next, A64C U87G G88U C95U: 0.04; U62C A138G U143C: 0.07; C61U U87G U132C: 0.08.
Then A59G A69G U85C, with 0.
On to A64U U102C U115C A140U, for which the self-cleavage is 0.08.
Next, U62G U87A C95U A140G: 0.06.
